# In PubChem BioAssay AID1963319 (National Center for Advancing Translational Sciences (NCATS), 2024):
# The whole screen tested about 1,300 compounds, of which about 120 (9.2%) were called active. Inconclusive results, whose numbers are uncertain, are shown with a selection of clear calls. Calls follow the shape of the dose curve; as a rule, active = well fitted activation curve with a large enough effect; inconclusive = small, poorly fitted or top-dose-only effect; inactive = flat fitted curve, though single readings scatter. Potencies beside an inconclusive call are fits to weak or partial responses and may not hold up.
# Target: Luciferin 4-monooxygenase (Photinus pyralis) (UniProt P08659)
# UniProt P08659, sequence (P08659 whole entry, looked up): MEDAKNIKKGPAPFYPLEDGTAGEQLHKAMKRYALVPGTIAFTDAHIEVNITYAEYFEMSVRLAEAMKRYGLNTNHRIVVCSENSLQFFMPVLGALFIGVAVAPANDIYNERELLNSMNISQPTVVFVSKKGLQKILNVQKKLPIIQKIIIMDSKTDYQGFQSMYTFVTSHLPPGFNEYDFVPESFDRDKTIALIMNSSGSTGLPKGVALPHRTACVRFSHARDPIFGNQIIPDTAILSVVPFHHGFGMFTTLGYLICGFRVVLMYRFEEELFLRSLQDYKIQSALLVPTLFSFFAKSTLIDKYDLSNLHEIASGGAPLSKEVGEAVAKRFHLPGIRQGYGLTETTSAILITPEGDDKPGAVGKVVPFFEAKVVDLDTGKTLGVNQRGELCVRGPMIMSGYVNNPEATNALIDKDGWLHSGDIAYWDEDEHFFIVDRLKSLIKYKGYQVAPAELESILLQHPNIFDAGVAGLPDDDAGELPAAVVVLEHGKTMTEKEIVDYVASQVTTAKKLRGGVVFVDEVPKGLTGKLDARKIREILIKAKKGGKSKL
# Assay: Firefly luciferase (FLuc-C-HiBiT) SDR gain of signal screen - plus ATP;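 also: signal reports ligand binding via conformational change of the enzyme rather than luciferase catalysis; nearly all actives have a fitted effect of over 55% in size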; as to activation (gain of signal): % of control where 0% means no effect
# Settings: purified FLuc-C-HiBiT + ATP, HiBiT complementation luminescence; series mostly up to 65.7 µM; activation (gain of signal): at the top concentration
# Excerpt: PI: James Inglese Ph.D. National Center for Advancing Translational Sciences (NCATS), National Institute of Health (NIH), Maryland Discovery and optimization of novel protein-binding ligands underlies many of the methods and applications of biology, drug discovery, clinical diagnostics, and environmental toxicology. Assays for detecting the interaction of, for example, a molecule with a macromolecular target also referred to here as the target of interest (TOI) is dependent on a compatible output technology. Depending on the nature and knowledge surrounding the TOI, whether a receptor, enzyme, regulatory subunit or scaffold, or a sequence-defined nucleic acid folded into a complex tertiary structure, assay strategies can vary widely. Here we exploit ligand-biased changes in the structural dynamics of the target protein to control reporter alpha complementation allowing a non-competitive, non-functional, non-separation measure of ligand-target interaction. […] Using a chemical library of >1,200 compounds enriched for scaffolds known to be associated with the inhibition of firefly luciferase (FLuc) activity (PubChem AIDs 2309) we first illustrate and compare the Structural Dynamics Response (SDR) assay vs. the standard functional FLuc enzyme assay (2). Secondly, we show the specificity and sensitivity of the SDR for the Abelson tyrosine kinase (ABL1) compared to the serine/threonine protein kinase A, using an enriched chemical library of 128 compounds selected, in part, for activity annotated with ABL1 kinase activity using the Pharos database (3). References: (1) A. S. Dixon et al., NanoLuc Complementation Reporter Optimized for Accurate Measurement of Protein Interactions in Cells. ACS Chem Biol 11, 400-408 (2016). […] Chemistry & Biology, 19, 1060 - 1072 (2012). (3) K. J. Kelleher et al., Pharos 2023: an integrated resource for the understudied human proteome. Nucleic Acids Res 51, D1405-D1416 (2023).
# 1. Reagent. Dispense 4 uL FLuc-C-HiBiT enzyme-buffer solution per well at a final enzyme concentration of 10 nM with or without 10 uM ATP into columns 2-48 of white, solid bottom medium bind 1536-well plates (Greiner Bio-One) by BioRaptr 2. Dispense respective buffer without enzyme at 4 uL/well in column 1 of assay plates. 2. Compounds. Library compounds and PTC124 control added at 23 nL per well, transfer by Pin Tool. 3. Incubation. Incubate enzyme and compounds at room temperature for >30 min, protect from light. 4. Reagent. (SDR assay) Add 3 uL/well of Nano-Glo HiBiT reagent (Promega) to assay plates for SDR assay with ATP. 5. Incubation. Incubate enzyme and substrate or detection reagent at room temperature for 5-10 min, protect from light. 6. Detector. HiBiT SDR assay measured using CCD-based camera (ViewLux) with settings as follows: Exposure, 1 sec; Gain, High; Speed, Slow; Binning, 2X. REFERENCES: Inglese J, Shamu CE and Guy RK, Reporting data from high throughput screening of small molecule libraries, Nature Chemical Biology, 2007, 3(8): 438-441. doi.org/10.1038/nchembio0807-438.
# Potency is read from the fitted curve at half-maximal effect; tags tell the direction and shape of the fitted curve.
Structure (SMILES),activation (gain of signal),Potency
COc1cc2c(cc1-c1ccc(CO)cc1)NC(=O)C21CCN(C)CC1,inactive: 10.5% [at 49.3 µM],
COc1ccc(-n2cc(C3=CCN(CCN4CCOCC4)CC3)cn2)cc1,,"inconclusive: 12.4 µM [activator, partial curve, poor fit]"
Cc1ccccc1Cn1cccc(C(=O)Nc2nc3ccccc3s2)c1=O,,"inconclusive: 8.81 µM [activator, partial curve]"
CN1CCN(C(=O)COc2ccc(-c3nc4ccccc4s3)cc2)CC1,,"inconclusive: 1.76 µM [activator, full curve]"
CN1CCNc2cc(Nc3ccc(F)cc3)ncc2C1,inactive: 19.8%,
CCn1cc(-c2cc3c(cn2)CN(C)CCN3)cn1,inactive: 9.1%,
Cc1cc(-c2cc3c(cn2)CN(CC(C)C)CCN3)ccn1,inactive: 17.2% [at 49.3 µM],
